According to patent publication US20040014158A1 (published 2004):

Molecular target: T1, C-Biotag-BS-LuSy (lumazine synthase of Bacillus subtilis with a C-terminal 13-residue peptide biotinylated in … (Bacillus subtilis, UniProt P11998 1-154, biotin covalently bound to the lysine of the peptide … (biotinylated in vivo)))
T1 construct: mature; no protein entry; SDS-denatured 18.5 kDa monomer in the blots; also called C-Bio-BS-LuSy; lumazine synthase fusion protein with Bio-Peptide
T1 sequence: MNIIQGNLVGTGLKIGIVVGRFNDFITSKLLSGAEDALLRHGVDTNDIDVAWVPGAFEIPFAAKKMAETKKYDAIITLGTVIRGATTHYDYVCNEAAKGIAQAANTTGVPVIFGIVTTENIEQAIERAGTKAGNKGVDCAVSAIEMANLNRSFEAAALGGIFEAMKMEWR
Experiment: sandwich ELISA: avidin coated, refolded fusion protein in log 2 dilution, streptavidin-AP detection, 405 nm

binding result: binds
B1: avidin (Sigma) (other, UniProt P02701 25-152, looked up)
chain: ARKCSLTGKWTNDLGSNMTIGAVNSRGEFTGTYITAVTATSNEIKESPLHGTQNTINKRTQPTFGFTVNWKFSESTTVFTGQCFIDRNGKEVLKTMWLLRSSVNDIGDDWKATRVGINIFTRLRTQKE
notes: Coated on microtiter wells; also called avidin stock solution; avidin coated microtiter plate
